Variants at the floor of the assay are shown more often than the library holds them.
B1: tRNA (parent)
chain: CUCUCGGUAGCCAAGUUGGUUUAAGGCGCAAGACUUUAAUUUAUCACUACGAAAUCUUGAGAUCGGGCGUUCGACUCGCCCCCGGGAGAUUUUUUCCUCGAGCAA

Variants of: B1
Test: nonsense suppression (GFP-seq) (ratio to wild type); higher = more function; SUP4oc tRNA, yeast GFP reporter sort-seq
Method in brief: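 Sorted GFP/RFP bins of yeast were each Illumina-sequenced with a phred ≥30 cutoff; the cells held a genome-integrated ochre-suppressor tRNA variant from a library with ~3% random mutations, a galactose-driven GFP ochre reporter, and RFP. Culture was in raffinose/galactose medium containing 80 mg/L adenine. Nonsense suppression, termed GFPSEQ, is the median GFP/RFP of the bins weighted by each variant's estimated cell share per bin, relative to the unmutated parent tRNA, for variants reaching ≥100 reads and ≥30 cells.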

Row | Variant | nonsense suppression
1 | G61U A62G C68A G88U | ≤ 0.026
2 | G61U C68A | ≤ 0.026
3 | G61U C68G U70C | ≤ 0.026
4 | G61U C72A | ≤ 0.026
5 | G61U C75G | 1.08
6 | G61U C75G A89C | ≤ 0.026
7 | G61U C75U G85A | 1.04
8 | G61U C80U | 0.677
9 | G61U G65C | ≤ 0.026
10 | G61U G66C | ≤ 0.026
11 | G61U G67A | 0.135
12 | G61U G67U | ≤ 0.026
13 | G61U G67U C72U | ≤ 0.026
14 | G61U G86A | ≤ 0.026
15 | G61U U71C | ≤ 0.026
16 | G61U U71C A87U | ≤ 0.026
17 | G61U U71C U76A | ≤ 0.026
18 | A62C A87C | ≤ 0.026
19 | A62C A87G | ≤ 0.026
20 | A62C C64G U76C C79G | ≤ 0.026
21 | A62C C64U | ≤ 0.026
22 | A62C C72A | ≤ 0.026
23 | A62C C77A | ≤ 0.026
24 | A62C C81G | ≤ 0.026

Row | Variant | nonsense suppression
25 | A62C C83G | ≤ 0.026
26 | A62C G65U C75G G85U | ≤ 0.026
27 | A62C G66C | ≤ 0.026
28 | A62C G66C C68U | ≤ 0.026
29 | A62C G67U C75G | ≤ 0.026
30 | A62C G69U C80A | ≤ 0.026
31 | A62C G84A G85U G86A | ≤ 0.026
32 | A62C G85A | ≤ 0.026
33 | A62C G85C A89U | ≤ 0.026
34 | A62C G88C | ≤ 0.026
35 | A62C U63A | ≤ 0.026
36 | A62C U63A C68A C75A C80U | ≤ 0.026
37 | A62C U70A A74U G85U | ≤ 0.026
38 | A62C U71C A87G | ≤ 0.026
39 | A62G A74U | ≤ 0.026
40 | A62G C64U G67U | ≤ 0.026
41 | A62G C72G A87C | ≤ 0.026
42 | A62G C72U G84C G88U A89U | ≤ 0.026
43 | A62G C72U G86U G88A | ≤ 0.026
44 | A62G C75A | 0.219
45 | A62G C75U C83A | ≤ 0.026
46 | A62G C79G G84C A87U | ≤ 0.026
47 | A62G C79U | ≤ 0.026
48 | A62G C80U | ≤ 0.026

Row | Variant | nonsense suppression
49 | A62G C80U A89G | ≤ 0.026
50 | A62G C81G | ≤ 0.026
51 | A62G C82A | ≤ 0.026
52 | A62G C83A | ≤ 0.026
53 | A62G G67A | ≤ 0.026
54 | A62G G69A C79A | ≤ 0.026
55 | A62G G69C U76G G86A | ≤ 0.026
56 | A62G G86A | ≤ 0.026
57 | A62G U70C | ≤ 0.026
58 | A62G U70C A74C | ≤ 0.026
59 | A62G U71C | ≤ 0.026
60 | A62G U76A | ≤ 0.026
61 | A62U A74U U76A G78C | ≤ 0.026
62 | A62U C68G | ≤ 0.026
63 | A62U C72G C77G | ≤ 0.026
64 | A62U C79A | ≤ 0.026
65 | A62U C83A | ≤ 0.026
66 | A62U G65A C80G | ≤ 0.026
67 | A62U G65C A89G | ≤ 0.026
68 | A62U G66C C82G | ≤ 0.026
69 | A62U G67A | ≤ 0.026
70 | A62U G67U G69U | ≤ 0.026
71 | A62U G69A U71A | ≤ 0.026
72 | A62U G73A | ≤ 0.026

Row | Variant | nonsense suppression
73 | A62U G84C | 0.0347
74 | A62U G86A | ≤ 0.026
75 | A62U U63C | ≤ 0.026
76 | A62U U71A | ≤ 0.026
77 | A62U U76G | ≤ 0.026
78 | U63A | 1.05
79 | U63A A89C | ≤ 0.026
80 | U63A A89G | ≤ 0.026
81 | U63A C72A G73C | ≤ 0.026
82 | U63A G65A G66A | ≤ 0.026
83 | U63A G65U | ≤ 0.026
84 | U63A G66C G73C | ≤ 0.026
85 | U63A G66C G86U | ≤ 0.026
86 | U63A G67C | ≤ 0.026
87 | U63A G67C G78U | ≤ 0.026
88 | U63A G67C G86C | ≤ 0.026
89 | U63A G67U G78C | ≤ 0.026
90 | U63A G69C G84A | ≤ 0.026
91 | U63A G69U U76C G84U | ≤ 0.026
92 | U63A G73U C82A | ≤ 0.026
93 | U63A G85A | 1.09
94 | U63A G85U | 0.23
95 | U63A U70A G73C | ≤ 0.026
96 | U63A U71A G84U A89U | ≤ 0.026

Row | Variant | nonsense suppression
97 | U63A U71C | ≤ 0.026
98 | U63A U71C G78A | ≤ 0.026
99 | U63C | 1.05
100 | U63C A74G | 0.0264
101 | U63C A74G G78A | ≤ 0.026
102 | U63C A89G | ≤ 0.026
103 | U63C C64U | ≤ 0.026
104 | U63C C75A | 1.04
105 | U63C C77G G88A | ≤ 0.026
106 | U63C C81G C83A G88C | ≤ 0.026
107 | U63C C81U | 0.142
108 | U63C G65C | ≤ 0.026
109 | U63C G66C U71C | ≤ 0.026
110 | U63C G66U C72A C82U | ≤ 0.026
111 | U63C G67C U70A | ≤ 0.026
112 | U63C G67U G85C | ≤ 0.026
113 | U63C G69A | ≤ 0.026
114 | U63C G73A | 0.11
115 | U63C G73A A74G | ≤ 0.026
116 | U63C G73A G78U A89G | ≤ 0.026
117 | U63C G73U | ≤ 0.026
118 | U63C G84U | ≤ 0.026
119 | U63C U70A | ≤ 0.026
120 | U63C U71A | ≤ 0.026

Row | Variant | nonsense suppression
121 | U63C U76A | ≤ 0.026
122 | U63C U76C | 0.693
123 | U63C U76C G84C | ≤ 0.026
124 | U63G | 1.14
125 | U63G A87U | 0.0518
126 | U63G A89G | 0.0674
127 | U63G C64U G85A | ≤ 0.026
128 | U63G C72U | 0.0334
129 | U63G C77G | ≤ 0.026
130 | U63G C81A | ≤ 0.026
131 | U63G C81G | ≤ 0.026
132 | U63G G65A | ≤ 0.026
133 | U63G G65C | ≤ 0.026
134 | U63G G66C | ≤ 0.026
135 | U63G G66U | ≤ 0.026
136 | U63G G66U G84A | ≤ 0.026
137 | U63G G73A | 0.189
138 | U63G G73U | ≤ 0.026
139 | U63G G78A | 0.0891
140 | U63G G84C | 0.0283
141 | U63G G85A | 0.787
142 | U63G G86A | ≤ 0.026
143 | U63G U71C | 0.028
144 | U63G U71G G85A | ≤ 0.026

Row | Variant | nonsense suppression
145 | C64A A74U | ≤ 0.026
146 | C64A A87C G88U | ≤ 0.026
147 | C64A C68G G73U | ≤ 0.026
148 | C64A C79G | ≤ 0.026
149 | C64A C81G | ≤ 0.026
150 | C64A C83G A87G | ≤ 0.026
151 | C64A G65A C68G C81U | ≤ 0.026
152 | C64A G66A U71G | ≤ 0.026
153 | C64A G67A G86A | ≤ 0.026
154 | C64A G69A | ≤ 0.026
155 | C64A G69C G86C | ≤ 0.026
156 | C64A G73U | ≤ 0.026
157 | C64A G85C | ≤ 0.026
158 | C64A U70A | ≤ 0.026
159 | C64A U71A U76G C77A | ≤ 0.026
160 | C64G C68A | ≤ 0.026
161 | C64G C75A | ≤ 0.026
162 | C64G C75G | ≤ 0.026
163 | C64G C75G C77U G78C C83A | ≤ 0.026
164 | C64G C75U C80U | ≤ 0.026
165 | C64G G66C G69A | ≤ 0.026
166 | C64G G66U A87G | ≤ 0.026
167 | C64G G67A G78A | ≤ 0.026
